Laboratory results taken from EPA's CvTdb concentration-time database.
This continues a long series; more values of the same kind are listed elsewhere.

What was measured:
Experiment in all cases: concentration in plasma after dosing
[1] = tested on: Rat; conditions: dosed: Perfluorodecanoic acid, 2 mg/kg, oral, Male, Harlan Sprague Dawley
[2] = tested on: Rat; conditions: 24 h; dosed: Perfluorodecanoic acid; 10 mg/kg; oral; Male; Harlan Sprague Dawley
[3] = tested on: Rat; conditions: dosed: Perfluorodecanoic acid, 10 mg/kg, oral, Male, Harlan Sprague Dawley
[4] = tested on: Rat; conditions: dosed: Perfluorodecanoic acid, 20 mg/kg, oral, Female, Harlan Sprague Dawley
[5] = tested on: Rat; conditions: dosed: Perfluorodecanoic acid, 2 mg/kg, oral, Male, Harlan Sprague Dawley; remark: listed apart in the source
[6] = tested on: Rat; conditions: dosed: Perfluorodecanoic acid, 10 mg/kg, oral, Female, Harlan Sprague Dawley
[7] = tested on: Rat; conditions: dosed: Perfluorodecanoic acid, 10 mg/kg, oral, Female, Harlan Sprague Dawley; remark: listed apart in the source
[8] = tested on: Rat; conditions: dosed: Perfluorodecanoic acid, 20 mg/kg, oral, Female, Harlan Sprague Dawley; remark: listed apart in the source
[9] = tested on: Rat; conditions: dosed: Perfluorodecanoic acid, 10 mg/kg, oral, Female, Harlan Sprague Dawley; remark: listed apart in the source
[10] = tested on: Rat; conditions: 864 h; dosed: Perfluorooctane Sulfonate; 20 mg/kg; oral; Male; Harlan Sprague Dawley
[11] = tested on: Rat; conditions: 6 h; dosed: Perfluorooctane Sulfonate; 20 mg/kg; oral; Male; Harlan Sprague Dawley
[12] = tested on: Rat; conditions: 6 h; dosed: Perfluorooctane Sulfonate; 20 mg/kg; oral; Female; F344
[13] = tested on: Rat; conditions: dosed: Perfluorooctane Sulfonate, 2 mg/kg, oral, Female, Harlan Sprague Dawley
[14] = tested on: Rat; conditions: 48 h; dosed: Fluorotelomer alcohol 8+2; 160 mg/kg; oral; Female; Harlan Sprague Dawley
[15] = tested on: Rat; conditions: dosed: Perfluorooctanoic acid, 6 mg/kg, iv, Male, F344
[16] = tested on: Rat; conditions: 1 h; dosed: Perfluorooctanoic acid; 80 mg/kg; oral; Female; Harlan Sprague Dawley
[17] = tested on: Rat; conditions: 6 h; dosed: Fluorotelomer alcohol 8+2; 24 mg/kg; oral; Male; Harlan Sprague Dawley
[18] = tested on: Rat; conditions: dosed: Fluorotelomer alcohol 8+2, 40 mg/kg, oral, Female, Harlan Sprague Dawley
[19] = tested on: Rat; conditions: dosed: Fluorotelomer alcohol 8+2, 48 mg/kg, oral, Male, Harlan Sprague Dawley
[20] = tested on: Rat; conditions: 3 h; dosed: Fluorotelomer alcohol 8+2; 48 mg/kg; oral; Male; Harlan Sprague Dawley
[21] = tested on: Rat; conditions: dosed: Fluorotelomer alcohol 8+2, 40 mg/kg, oral, Female, Harlan Sprague Dawley; remark: listed apart in the source
[22] = tested on: Rat; conditions: dosed: Perfluorooctanoic acid, 40 mg/kg, oral, Male, Harlan Sprague Dawley
[23] = tested on: Rat; conditions: 3 h; dosed: Perfluorooctanoic acid; 12 mg/kg; oral; Male; Harlan Sprague Dawley
[24] = tested on: Rat; conditions: dosed: Perfluorooctanoic acid, 6 mg/kg, oral, Male, Harlan Sprague Dawley
[25] = tested on: Rat; conditions: dosed: Perfluorooctanoic acid, 320 mg/kg, oral, Female, Harlan Sprague Dawley
[26] = tested on: Rat; conditions: 192 h; dosed: Perfluorooctanoic acid; 80 mg/kg; oral; Female; Harlan Sprague Dawley
[27] = tested on: Rat; conditions: 6 h; dosed: Fluorotelomer alcohol 8+2; 80 mg/kg; oral; Female; Harlan Sprague Dawley
[28] = tested on: Rat; conditions: 12 h; dosed: Perfluorooctanoic acid; 80 mg/kg; oral; Female; Harlan Sprague Dawley
[29] = tested on: Rat; conditions: 9 h; dosed: Fluorotelomer alcohol 8+2; 160 mg/kg; oral; Female; Harlan Sprague Dawley
[30] = tested on: Rat; conditions: dosed: Fluorotelomer alcohol 8+2, 48 mg/kg, oral, Male, Harlan Sprague Dawley; remark: listed apart in the source
[31] = tested on: Rat; conditions: dosed: Fluorotelomer alcohol 8+2, 80 mg/kg, oral, Female, Harlan Sprague Dawley
[32] = tested on: Rat; conditions: dosed: Fluorotelomer alcohol 8+2, 48 mg/kg, oral, Male, Harlan Sprague Dawley; remark: listed apart in the source
[33] = tested on: Rat; conditions: dosed: Perfluorooctanoic acid, 12 mg/kg, oral, Male, Harlan Sprague Dawley

O=C(O)C(F)(F)C(F)(F)C(F)(F)C(F)(F)C(F)(F)C(F)(F)C(F)(F)C(F)(F)C(F)(F)F [Perfluorodecanoic acid]
Conditions | concentration in plasma [ng/mL]
[1], 6 h | 7240
[1], 864 h | 2910
[3], 6 h | 36800
[3], 1200 h | 7190
[3], 3360 h | 2130
[4], 0.5 h | 29600
[4], 24 h | 146000
[4], 1848 h | 15000
[5], 1 h | 5520
[5], 192 h | 10600
[5], 2520 h | 838
[6], 2 h | 30500
[6], 528 h | 23900
[6], 2520 h | 5960
[7], 2 h | 29900
[7], 528 h | 23200
[7], 2520 h | 7240
[8], 1 h | 57200
[8], 192 h | 120000
[8], 2520 h | 4540
[9], 12 h | 61500
[9], 864 h | 19900

Conditions | concentration in plasma [ng/mL]
[2] | 39400

O=S(=O)([O-])C(F)(F)C(F)(F)C(F)(F)C(F)(F)C(F)(F)C(F)(F)C(F)(F)C(F)(F)F [Perfluorooctane Sulfonate]
Conditions | concentration in plasma [ng/mL]
[10] | 24200
[11] | 70000
[12] | 128000

[13]
Conditions | concentration in plasma [ng/mL]
12 h | 6120
1200 h | 3080

O=C(O)C(F)(F)C(F)(F)C(F)(F)C(F)(F)C(F)(F)C(F)(F)C(F)(F)F [Perfluorooctanoic acid]
Conditions | concentration in plasma [ng/mL]
[14] | 74.8
[16] | 220000
[17] | 726
[20] | 967
[23] | 70200
[26] | 1170
[27] | 1580
[28] | 85800
[29] | 4980

Conditions | concentration in plasma [ng/mL]
[15], 3 h | 54700
[15], 192 h | 22900
[18], 0.25 h | 112
[18], 6 h | 897
[19], 48 h | 2620
[19], 192 h | 1740
[21], 0.5 h | 571
[21], 9 h | 922
[22], 3 h | 131000
[22], 24 h | 3840
[24], 6 h | 45600
[24], 192 h | 19800
[25], 3 h | 364000
[25], 24 h | 358000
[30], 0.5 h | 183
[30], 9 h | 2140
[31], 0.25 h | 106
[31], 24 h | 148
[32], 0.75 h | 21
[32], 12 h | 331
[33], 0.25 h | 17700
[33], 864 h | 11000
